Screen size: about 390,000 compounds; about 2,200 (0.56%) were called active. This list was built around the results that the source calls inconclusive (neither active nor inactive); the mix of calls is not that of the screen. Calls follow the shape of the dose curve; as a rule, active = well fitted inhibition curve with a large enough effect; inconclusive = small, poorly fitted or top-dose-only effect; inactive = no such curve, though single readings can be large or run the other way. Potencies of inconclusive entries are doubtful fits and often do not repeat.
These molecules were tested against Chromobox protein homolog 1 (Homo sapiens) (UniProt P83916) (assay: HTS for Inhibitors of HP1-beta Chromodomain Interactions with Methylated Histone Tails). Details: AlphaScreen HP1-beta / biotin-H3K9me3 peptide binding; series mostly up to 114 µM; activity change, negative = inhibition: at the top concentration.
Sequence of UniProt P83916 (P83916 whole entry, looked up): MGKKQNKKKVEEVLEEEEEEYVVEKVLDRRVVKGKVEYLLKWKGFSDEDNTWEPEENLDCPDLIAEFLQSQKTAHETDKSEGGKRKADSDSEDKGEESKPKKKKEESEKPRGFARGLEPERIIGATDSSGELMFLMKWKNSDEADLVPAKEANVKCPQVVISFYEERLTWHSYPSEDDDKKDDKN
From the text: As our understanding of epigenetics expands, it is becoming clear that players in this field are potential targets for drug development. This area of epigenetic therapy has established applications for the treatment of cancer and neurological diseases. We have been involved in this field for a number of years and have performed high-throughput screens to identify the first small molecule inhibitors of protein methyltransferases. These methyltransferases target multiple substrates, and thus regulate many arms of an epigenetic pathway. The methylation of different substrates often generates docking sites for effector proteins that harbor binding domains (chromo, tudor, PHD, MBT and ANK repeats). It has been proposed that the binding sites generated for different proteins by these post-translational modifcations mediate downstream effects on chromatin. Consistent with this theory, di- and tri-methylation of histone H3K9 facilitates the binding of heterochromatin protein HP1. The HP1 protein harbors a chromodomain that is responsible for the methyl-dependent interaction between HP1 and lysine 9 of histone H3. HP1 was first described in flies as a heterochromatin associated protein that can regulate gene silencing. It harbors a chromodomain that binds H3K9me3. In addition, it harbors a chromoshadow domain that interacts with a large number of proteins that are involved in heterochromatin formation and gene repression. There are three highly related HP1 isoforms. All three variants are associated with pericentric heterochromatin and it is not clear whether they have specific or redundant functions. MPP8 is also involved in the repression of gene in euchromatic regions (unpublished data) and like HP1 its chromodomain binds H3K9me3. MPP8 harbors an ankyrin repeat region that is likely involved in binding and recruiting interacting proteins with transcriptional repressive function, much like the chromoshadow domain of HP1 does. We hypothesize that by inhibiting specific protein-protein interactions we will be able to develop compounds that block a single arm of an epigenetic pathway. The specificity attained by blocking a single protein-protein interaction will be far greater than that attained by blocking the enzyme that regulates one of many interactions. Low-affinity protein-protein interactions (Kd in the single- to double-digit micromolar range) such as those discussed here have been very difficult to assay by traditional techniques such as fluorescence polarization or fluorescence resonance energy transfer. We have developed a sensitive chemiluminescence-based assay (Quinn, et al. 2009), which serves as the starting point for this project. The following is a validation assay to identify lead compounds that can block methyl-dependent protein-protein interactions (specifically HP1-beta), which can be used as probes to analyze these methyl-driven interactions and perhaps even developed into targeted epigenetic therapies. NIH Chemical Genomics Center [NCGC] NIH Molecular Libraries Probe Centers Network [MLPCN] MLPCN Grant: DA031087 Assay Submitter (PI): Mark Bedford, University of Texas, Medical Anderson Cancer Center, TX
To each well, 2 uL of HP1-beta protein (final 50 nM) and 1 uL biotinylated histone peptide trimethylated at Lys9 [b-H3(1-18)K9me3] (final 50 nM) was added in 1x PBS buffer, pH 7.4, containing 0.01% Tween-20 using a nanoliter dispenser. Formation of a protein-peptide complex proceeded at room temperature for 30 min. A Kalypsys pin-tool was employed to transfer 23 nL of library compound solution in DMSO to each well. Aurintricarboxylic acid (ATA) was used as an intraplate control with a 12-point titration in duplicate. Following a 30 min incubation of the protein-peptide complex with compounds at room temperature, a mixture of 40 ug/mL each streptavidin-coated donor and nickel chelate acceptor AlphaScreen beads (final 10 ug/mL) was added in a 1 uL dispense for a final volume of 4 uL. […]
In the case of O=C(Nc1ccc(N2CCCCCC2)cc1)c1ccc[nH]1, the Potency is reported as inconclusive: 31.6 µM [inhibitor, partial curve]. In the case of CCOc1cccc(C2C(C(=O)c3ccc(C)o3)=C(O)C(=O)N2c2nnc(C)s2)c1 (stereo unspecified), the Potency is reported as inconclusive: 25.1 µM [inhibitor, single point]. In the case of O=C(CCl)N1N=C(c2ccco2)CC1c1ccco1 (stereo unspecified), the Potency is reported as active: 50.1 µM. O=S(=O)(Nc1cccc(-c2ccc(N3CCCCCC3)nn2)c1)c1cccc(F)c1 was tested, and the Potency was “inactive”. In the case of O=C1CCCC2=C1C(c1ccc(O)c(O)c1)c1c(ccc3ncccc13)N2 (stereo unspecified), the Potency is reported as inconclusive: 70.8 µM [inhibitor, partial curve, poor fit]. In the case of CC(=O)N1/C(=C/c2ccc(N(C)C)cc2)C(=O)c2ccccc21, the Potency is reported as active: 22.4 µM. CCN(CC)c1ccc(NC(=O)c2cccc(C)c2OC)c(C)c1 was tested, and the Potency was inconclusive: 22.4 µM [inhibitor, full curve, poor fit]. In the case of Cc1cc(NC(=O)CN2CCCCC2C)no1 (stereo unspecified), the Potency is reported as inconclusive: 1.26 µM [inhibitor, full curve, poor fit]. For COCCn1c(=N)c(C(=O)NC(C)c2ccccc2)cc2c(=O)n3cc(C)ccc3nc21 (stereo unspecified), the “activity change, negative = inhibition” value was inactive: 35.4%. With CCc1cc(=O)oc2c3c(c(Cl)cc12)OCN(Cc1cccc(OC)c1)C3 the “activity change, negative = inhibition” value was inactive: 40%. CC1CCN(c2oc(-c3ccco3)nc2S(=O)(=O)c2ccccc2)CC1 was tested, and the Potency was inconclusive: 44.7 µM [inhibitor, partial curve]. In the case of O=C(CCCC(=O)c1ccc(O)cc1)c1ccc(O)cc1, the “activity change, negative = inhibition” value is reported as inactive: 21.9%. In the case of O=C(c1cc2ccccc2o1)N1CCN(c2ccccn2)CC1, the Potency is reported as inconclusive: 89.1 µM [inhibitor, single point]. For CN(C)CCOC1c2ccccc2CCc2ccc3ccccc3c21 (stereo unspecified), the Potency was inconclusive: 56.2 µM [inhibitor, partial curve, poor fit]. With O=C(CN1CCCCCC1)NN(Cc1ccccc1)c1ccccc1 the Potency was inconclusive: 56.2 µM [inhibitor, single point]. In the case of Cc1c(Cl)cccc1NC(=O)c1cnc2sc(N3CCOCC3)nn2c1=O, the Potency is reported as inconclusive: 89.1 µM [inhibitor, partial curve, poor fit]. For O=C(Nc1ccccc1C(=O)N/N=C/c1ccccc1)c1ccco1, the Potency was inconclusive: 89.1 µM [inhibitor, partial curve, poor fit]. For Cc1c(/N=C/c2ccco2)n(Cc2ccccc2)c2ccccc12, the Potency was inconclusive: 20 µM [inhibitor, partial curve, poor fit]. CCOC(=O)NC1(Nc2ccc(C)cc2)Oc2ccccc2O1 was tested, and the Potency was inconclusive: 89.1 µM [inhibitor, single point]. With O=C(CSc1ccc2c(c1)OCCO2)N1CCN(c2ccccc2)CC1 the “activity change, negative = inhibition” value was inactive: 28.4%. For CCC(=O)N1c2ccccc2CC1C(=O)NCCc1ccccc1C (stereo unspecified), the “activity change, negative = inhibition” value was inactive: 11.7%. With C(=N\N1CCN(Cc2cccc3ccccc23)CC1)/c1cccs1 the Potency was inconclusive: 22.4 µM [inhibitor, full curve]. In the case of CCOC(=O)C1=CN(c2cccc(F)c2)C=C(C(=O)OCC)C1c1cc(OC)c(O)c([N+](=O)[O-])c1, the Potency is reported as inconclusive: 50.1 µM [inhibitor, partial curve]. For NC(=O)c1c(NC(=O)C2CCCO2)sc2c1CCCC2 (stereo unspecified), the Potency was inconclusive: 28.2 µM [inhibitor, partial curve, poor fit]. S=C(NCc1ccco1)N1CCN(Cc2ccco2)CC1 was tested, and the Potency was inconclusive: 35.5 µM [inhibitor, partial curve, poor fit]. With CN1CCN(CC(=O)n2c3c(c4ccccc42)CCCC3)CC1 the “activity change, negative = inhibition” value was inactive: -9.39%. Cc1cc(C)c2c(CC(=O)N3CCN(c4cccc(Cl)c4)CC3)coc2c1 was tested, and the “activity change, negative = inhibition” value was inactive: 41.8%. Cn1c(-c2ccc3c(c2)OCO3)cnc1NCc1cccc(O)c1 was tested, and the Potency was inconclusive: 50.1 µM [inhibitor, partial curve]. CCn1c(O)c(N=NC(=O)CNc2ccc(C)cc2)c2ccccc21 was tested, and the Potency was inconclusive: 39.8 µM [inhibitor, partial curve]. In the case of Cc1ccc(NC(=O)COC(=O)Cc2c[nH]c3ccccc23)cc1F, the “activity change, negative = inhibition” value is reported as inactive: 8.66%. With Cc1cc(Cl)c2oc(C(=O)N3CCCCC3CCN3CCCC3=O)c(C)c2c1 (stereo unspecified) the “activity change, negative = inhibition” value was inactive: 17.6%. In the case of CN1c2ccc([N+](=O)[O-])cc2N(C)C1(C)c1ccccc1 (stereo unspecified), the Potency is reported as active: 10 µM. In the case of CC(Sc1nnc(NC2CC2)s1)C(=O)Nc1ccc(N2CCOCC2)cc1 (stereo unspecified), the “activity change, negative = inhibition” value is reported as inactive: 16.1%. For NNc1ccc(Cl)nn1, the Potency was active: 79.4 µM. With Cc1ccc(-n2nc3c(=O)n(C(C)C(=O)NCCC4=CCCCC4)nc(C)c3c2C)cc1 (stereo unspecified) the “activity change, negative = inhibition” value was inactive: 45.6%. CN(C)c1ccc(C(CNS(=O)(=O)c2ccc(F)cc2)c2c[nH]c3ccccc23)cc1 (stereo unspecified) was tested, and the Potency was inconclusive: 14.1 µM [inhibitor, full curve, poor fit]. CCCCN(C)C(=O)c1ccc(S(=O)(=O)N2CCOCC2)cc1 was tested, and the “activity change, negative = inhibition” value was inactive: 10.8%. For O=C(NNS(=O)(=O)c1ccccc1)C1CCN(S(=O)(=O)c2ccccc2)CC1, the “activity change, negative = inhibition” value was inactive: 30.5%. In the case of CN(C)c1ccc(NC(=O)CSc2nc(N)c(C(=O)Nc3ccc(N(C)C)cc3)s2)cc1, the Potency is reported as inconclusive: 0.891 µM [inhibitor, full curve, poor fit]. For CNc1oc(-c2ccccc2Cl)nc1P(=O)(c1ccccc1)c1ccccc1, the Potency was inconclusive: 79.4 µM [inhibitor, single point]. With COc1ccc(C2c3ccc4ccccc4c3Oc3ncn(Cc4ccco4)c(=N)c32)cc1OC (stereo unspecified) the Potency was inconclusive: 50.1 µM [inhibitor, partial curve]. For CCOC(=O)Cc1nc2ccccc2n(CC#N)c1=O, the “activity change, negative = inhibition” value was inactive: 34.6%. O=S(=O)(c1ccc2ccccc2c1)N1CCN(C2Cc3ccccc3C2)CC1 was tested, and the Potency was inconclusive: 15.8 µM [inhibitor, partial curve, poor fit]. For CCOc1ccccc1NC(=O)Cn1cc(C(=O)c2cccc(OC)c2)c(=O)c2ccc(C)nc21, the “activity change, negative = inhibition” value was inactive: 15.5%. Cc1cc(Nc2ccc3c(c2)OCCO3)c2cc(Cl)ccc2n1 was tested, and the Potency was inconclusive: 28.2 µM [inhibitor, partial curve, poor fit]. For CCOC(=O)c1cc2c(ccn2C)n1Cc1ccccc1C, the Potency was inconclusive: 28.2 µM [inhibitor, full curve].

From PubChem BioAssay AID540317 (National Center for Advancing Translational Sciences (NCATS), 2011)
Also: nearly all actives have a fitted effect of over 70% in size.
Potency is read from the fitted curve at half-maximal effect; tags tell the direction and shape of the fitted curve.
